From the supplement of paper PMC10185492
This is one part of the list. Values come from read counts of a selection and are noisy.

test system: SARS-CoV-2 3CLpro (nsp5); test: substrate phage enrichment score (protease-eluted vs HEPES control, +1 offset) (ratio); higher = better cleaved substrate; settings: selection round: 4; protease elution time: 15 min
Description: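 Random heptapeptide substrate phage display (M13 pIII fusion, heptapeptide between an N-terminal biotinylated AviTag GLNDIFEAQKIEWHE and pIII; phages immobilised on streptavidin) eluted by cleavage with 50 nM protease in 20 mM HEPES at 37 °C. Selected phages were NGS sequenced, and the enrichment score is (reads in protease sample + 1)/(reads in HEPES blank-selection control + 1).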

Row | Substance | substrate phage enrichment score
1 | AFQGRSG | 4.75
2 | SAPAHHH | 0.625
3 | TTEQGMS | > 90
4 | QVRLQSH | > 51
5 | KSSRPGL | 1.89
6 | TDRANDA | 1.91
7 | YCHVLTV | 2
8 | STSWSCM | > 32
9 | QNNTELL | 0.136
10 | QATRLQS | > 121
11 | SRLQLHT | > 24
12 | VTRCVLQ | 8.25
13 | LTGDKYG | > 29
14 | DHRPKVT | > 72
15 | SCENLNW | 1.26
16 | SGGYGNN | > 143
17 | TNKCYTP | > 42
18 | SQIGSPQ | 1.88
19 | LTTGGIR | > 21
20 | QRGQPNV | 5.29
21 | ESQAVLQ | 82.6
22 | ASSCDGT | 13
23 | AGQFQPT | 2.46
24 | DLNSPAA | 1.6
25 | KTDGRHT | 26

Row | Substance | substrate phage enrichment score
26 | DATLQGL | 3.57
27 | HMMREPP | > 27
28 | NSLHPMR | > 24
29 | AQLSEHR | > 106
30 | MWAPQHR | 6.67
31 | QAKPKDV | 7.5
32 | LGAAHHH | 0.375
33 | STGDGPT | 0.1
34 | NSTTGSS | 3.22
35 | CEDTRNS | > 32
36 | HEKHDVK | 14.3
37 | SAWLQGD | > 50
38 | WQYESGA | 2.38
39 | TRLPTLQ | > 25
40 | CGRTSSS | 0.78
41 | ESTLGTH | > 23
42 | VSWNCDC | 4.71
43 | ATARDAL | 2
44 | AVLLQSR | > 178
45 | VQDLSLI | 21.5
46 | NRIDAYG | 1
47 | KSAMKDA | 0.438
48 | AKPTQLH | > 31
49 | ANRQCVP | 3.4
50 | WDVHGQD | > 29

Row | Substance | substrate phage enrichment score
51 | QALLQCI | > 23
52 | ATYTWQG | > 24
53 | LTEKGMI | 1.2
54 | TATTGLT | 6.25
55 | NAHQSQR | 3.33
56 | TELKPTL | > 21
57 | DAVNGEC | 0.946
58 | SAAAHHK | 1.47
59 | DCRLNEC | > 33
60 | FSPQTSQ | > 55
61 | RARQWSG | 2.37
62 | NEETEQR | > 25
63 | SSCSSHR | > 27
64 | RCGSKQQ | > 23
65 | EKNTTLQ | 438
66 | GHLRPHD | 0.281
67 | AHEWREH | 0.324
68 | PRSTAYG | 0.474
69 | LRYEKTP | 2.58
70 | RTMCREQ | 3.5
71 | PTTELRA | > 23
72 | SDCRSRH | 11
73 | KYEQYIN | 5
74 | NAQPSKY | 1.43
75 | RYPTYSR | 2.22

Row | Substance | substrate phage enrichment score
76 | ELSANTH | 21.5
77 | PCMRVKP | 6.17
78 | TQAEDYR | 10.2
79 | SAAPHHH | 0.985
80 | LYLQGGS | 1.35
81 | AHRHYVG | 8
82 | VHGVKLQ | > 38
83 | PPHEITR | > 41
84 | VSKTTLQ | > 81
85 | HPESQRG | 3.29
86 | PCQLCQD | > 27
87 | HRGGPSA | 12.5
88 | LTGNYGR | 4.36
89 | SPHCSSA | 6.33
90 | PTNEGLM | 3.82
91 | CAHRFKR | > 40
92 | KFTHTER | 5.71
93 | EWRCVLQ | 81.5
94 | VLLMHST | 7.33
95 | RATLKSQ | > 32
96 | RASLTGR | 2.67
97 | YYRPDWD | > 27
98 | DTCPRPN | 0.444
99 | AVKHRNR | 6
100 | KHMRPSR | 9.83
